Experimental data from PubChem BioAssay AID1476 (National Center for Advancing Translational Sciences (NCATS), 2009).
About 4,500 (2.2%) of roughly 200,000 compounds were called active. The inconclusive results got no clear call from the source; some entries with a clear call stand among them for comparison. Calls come from the whole dose curve; as a rule, active = well fitted inhibition curve with a large enough effect; inconclusive = small, poorly fitted or top-dose-only effect, or effect the other way; inactive = flat fitted curve, though single readings scatter. A potency beside an inconclusive call is a rough fit, not a confirmed value.
Note: nearly all actives have a fitted effect of over 40% in size.
Potency is the fitted concentration of half-maximal effect; tags give direction and shape of the fitted curve.
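Throughout, for max response, negative = inhibition: plate controls were enzyme without inhibitor for no effect and buffer without enzyme for full effect.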

What follows are compounds tested against Cruzipain (Trypanosoma cruzi) (UniProt P25779) (assay: qHTS Assay for Promiscuous and Specific Inhibitors of Cruzain (without detergent)). Conditions: purified cruzain, Z-FR-AMC fluorescence, no detergent.
Sequence of UniProt P25779 (P25779 whole entry, looked up): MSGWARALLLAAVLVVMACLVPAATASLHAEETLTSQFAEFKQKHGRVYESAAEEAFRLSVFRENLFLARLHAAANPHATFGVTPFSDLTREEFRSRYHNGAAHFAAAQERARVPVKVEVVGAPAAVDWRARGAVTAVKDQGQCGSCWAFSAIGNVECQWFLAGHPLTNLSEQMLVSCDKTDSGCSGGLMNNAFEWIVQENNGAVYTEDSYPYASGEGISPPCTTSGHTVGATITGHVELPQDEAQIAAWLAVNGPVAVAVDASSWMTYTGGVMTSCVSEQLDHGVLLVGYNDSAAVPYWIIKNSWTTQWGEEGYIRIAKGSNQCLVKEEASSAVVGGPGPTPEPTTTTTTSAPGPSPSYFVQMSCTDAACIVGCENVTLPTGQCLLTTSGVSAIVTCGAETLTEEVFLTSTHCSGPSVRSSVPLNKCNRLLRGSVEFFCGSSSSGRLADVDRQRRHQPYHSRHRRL
Summary of the method: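 Detergent-free condition (0.00005% Triton X-100) in acetate buffer pH 5.5 with DTT. 1.5 nM enzyme and compound were pre-mixed 15 min, then 2 uM Z-FR-AMC substrate added; reaction progress from fluorescence change between first and third reads (60 s).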
In the case of `CCOc1cc(/C=N/NC(=O)C(=O)NC2CC2)cc(Br)c1O`, the Potency is reported as inconclusive: 39.8 µM [inhibitor, single point].
With `CN(C(=O)CSc1nc2ccc(NC(=O)COc3ccc(F)cc3)cc2s1)c1ccccc1` the max response, negative = inhibition was inactive: 1.94%.
`Cn1c(=O)c2c(nc(/C=C/c3cccc(Cl)c3)n2C)n(C)c1=O` was tested, and the Potency was inconclusive: 20 µM [activator, partial curve].
In the case of `COc1ccc([N+](=O)[O-])cc1-n1cccc1`, the Potency is reported as inconclusive: 3.98 µM [inhibitor, single point].
In the case of `Cc1nc2ccc(S(=O)(=O)NC(C(=O)NCc3cccs3)C(C)C)cc2s1` (configuration not stated), the max response, negative = inhibition is reported as inactive: -10.3%.
In the case of `COCCN1CN(S(=O)(=O)c2ccc(Cl)cc2)c2nc3ccccc3nc21`, the Potency is reported as inconclusive: 39.8 µM [activator, single point].
With `O=C(Nc1ccc2ccccc2c1)/C(=C/c1cccc(Br)c1)NC(=O)c1ccco1` the Potency was inconclusive: 39.8 µM [inhibitor, single point].
`Cc1ccc(CCC(=O)Nc2ncc(Cc3cccc(Cl)c3Cl)s2)o1` was tested, and the Potency was active: 12.6 µM.
`Cc1nn(-c2ccccc2)c2sc(C(=O)OCn3nnc4ccccc4c3=O)cc12` was tested, and the Potency was active: 25.1 µM.
For `Cc1c(C(=O)N2CCC(C)CC2)c(S(=O)(=O)Nc2cccc(C#N)c2)c(C)n1C`, the max response, negative = inhibition was inactive: 3.63%.
With `Cc1c(Cl)cccc1NC(=O)c1cc(-c2cccs2)on1` the Potency was inconclusive: 25.1 µM [inhibitor, single point].
`Cc1cc(C(C)(C)C)cc(CNC2CCCCC2)c1O` was tested, and the max response, negative = inhibition was inactive: 0.423%.
With `COc1ccccc1/C=C\C=N\n1c(-c2ccc(Cl)cc2)n[nH]c1=S` the Potency was inconclusive: 39.8 µM [inhibitor, single point].
In the case of `COc1cccc(NC(=O)N2CCN(C(=O)c3nsc4ccccc34)CC2)c1`, the max response, negative = inhibition is reported as inactive: 16.2%.
In the case of `N#Cc1c(SCC(=O)Nc2ccccc2)nsc1SCC(=O)Nc1ccccc1`, the Potency is reported as inconclusive: 31.6 µM [inhibitor, single point].
With `COc1ccccc1N=c1scc(-c2ccc(S(=O)(=O)N3CCCC3)cc2)n1C` the max response, negative = inhibition was inactive: 20.2%.
For `CN1CN(C)c2cccc3cccc1c23`, the Potency was inconclusive: 25.1 µM [activator, single point].
For `O=C(/C(=N/N=C/c1ccc(O)c(O)c1O)c1ccccc1)c1ccccc1`, the max response, negative = inhibition was inactive: -15.2%.
In the case of `CCOC(=O)c1c(C)[nH]c(C)c1S(=O)(=O)N1CCC(C(=O)Nc2ccc(C)c(Cl)c2)CC1`, the Potency is reported as inconclusive: 31.6 µM [activator, single point].
`CCc1cccc(CC)c1NC(=O)Cn1c(-c2ccccc2Cl)nc2ccccc21` was tested, and the Potency was inconclusive: 20 µM [activator, partial curve].
With `COc1ccc(C)cc1-n1nnnc1SCC(=O)c1ccc2c(c1)OCCO2` the Potency was active: 25.1 µM.
`COc1ccccc1NC(=O)c1c(NC(=O)c2ccco2)sc2c1CCC2` was tested, and the Potency was active: 7.94 µM.
For `Cc1cccc(C)c1NC(=O)CCS(=O)(=O)c1cccc2nonc12`, the max response, negative = inhibition was inactive: 1.61%.
With `CC(=O)NC(=O)COC(=O)/C=C/c1c(C)nn(Cc2c(Cl)cccc2Cl)c1Cl` the Potency was inconclusive: 39.8 µM [activator, single point].
In the case of `CCc1ccccc1NC(=O)c1cc2c(Cl)nc3ccccc3c2s1`, the max response, negative = inhibition is reported as inactive: -2.53%.
With `COc1ccc(C2C(C#N)=C(N)Oc3c2c(C)nn3-c2ccccc2)cc1Cn1nc(C)c([N+](=O)[O-])c1C` (configuration not stated) the Potency was inconclusive: 39.8 µM [activator, single point].
For `CCc1ccccc1N(CC(=O)N/N=C/c1ccc(OC(=O)OC)c(OC)c1)S(C)(=O)=O`, the Potency was inconclusive: 39.8 µM [activator, single point].
`CCOC(=O)c1cc(C)n(CCc2ccccc2)c1C` was tested, and the max response, negative = inhibition was inactive: 0.554%.
In the case of `CCOC(=O)c1cc(-c2ccccc2)n(-c2cccc(C(=O)N(C)c3ccc(C)cc3)c2)c1C`, the max response, negative = inhibition is reported as inactive: -4.36%.
For `C=CCCCCCCCCCCCC(O)CC(O)CO` (configuration not stated) (tested in a mixture with another compound), the Potency was inconclusive: 39.8 µM [activator, single point].
With `CCOC(=O)c1c(NC(=O)CSc2nnc(-c3c[nH]c4ccccc34)n2C)sc2c1CCCC2` the Potency was inconclusive: 31.6 µM [inhibitor, single point].
In the case of `O=C(Nc1ccccc1)Nc1nc(-c2ccc(F)cc2)cs1`, the Potency is reported as inconclusive: 39.8 µM [inhibitor, single point].
`CSc1ccc(CNC(=O)CCc2c(C)nn(-c3ccc(N4CCCC4)nn3)c2C)cc1` was tested, and the max response, negative = inhibition was inactive: 2.9%.
With `CC(C)=CCCC1(C)C=Cc2c(O)c3c(c(CC=C(C)C)c2O1)OC12C(=CC4CC1C(C)(C)OC2(C/C=C(/C)C(=O)O)C4=O)C3=O` (configuration not stated) the Potency was inconclusive: 12.6 µM [activator, partial curve].
In the case of `CCOc1ccc(C2SCC(=O)Nc3c2c(C)nn3C2CCOC(C)(C)C2)cc1` (configuration not stated), the Potency is reported as inconclusive: 39.8 µM [activator, single point].
For `CCOC(=O)N1CCc2c(sc3c2c(=O)n(Cc2ccccc2)c(=O)n3Cc2ccc(C)cc2)C1`, the Potency was inconclusive: 25.1 µM [inhibitor, single point].
With `Cc1nc(-n2nc(C)c(CCC(C)C)c2C)sc1C(=O)Nc1ccc(Br)cc1` the max response, negative = inhibition was inactive: -7.78%.
`Cc1cccn2c(=O)cc(COc3cccc(NC(=O)COc4ccccc4)c3)nc12` was tested, and the max response, negative = inhibition was inactive: -13.3%.
`CCOc1ccc(-c2cc3nc(C4CCN(C(=O)OC(C)(C)C)CC4)c(C(=O)O)cn3n2)cc1` was tested, and the Potency was inconclusive: 5.01 µM [activator, full curve].
For `COc1ccc(-c2nc(C#N)c(NCc3ccc(F)cc3)o2)cc1OC`, the Potency was inconclusive: 20 µM [activator, single point].
For `CN(C)c1ccc(C2N([C@H](C#N)c3ccc(N(C)C)cc3)CCCN2[C@@H](C#N)c2ccc(N(C)C)cc2)cc1` (some centres not stated), the max response, negative = inhibition was inactive: -4.58%.
`COc1ccc(C(=O)NC2CCN(C(=S)Nc3cccc(C)c3C)CC2)cc1` was tested, and the Potency was inconclusive: 31.6 µM [inhibitor, single point].
With `CCN(CC)C(=O)N1CCC(NC(=O)c2ccc(C(C)(C)C)cc2)CC1` the Potency was inconclusive: 31.6 µM [activator, single point].
In the case of `CC(Oc1ccc(Cl)cc1Cl)C(=O)NCCCn1ccnc1` (configuration not stated), the Potency is reported as inconclusive: 39.8 µM [activator, single point].
With `C=CCNC(=O)c1cc2c(=O)n3cc(C)ccc3nc2nc1NCC1CCCO1` (configuration not stated) the Potency was inconclusive: 39.8 µM [inhibitor, single point].
`CCCCOc1ccc(/C=C/C(=O)Nc2ccc([N+](=O)[O-])cc2C)cc1` was tested, and the Potency was active: 25.1 µM.
In the case of `COC(=O)c1ccc2c(c1)c(I)c(-c1ccc(OC)cc1)n2C`, the Potency is reported as inconclusive: 44.7 µM [inhibitor, single point].
`Cc1ccc2nc(C3CCCN(C(=S)Nc4cccc(C)c4C)C3)[nH]c2c1` (configuration not stated) was tested, and the Potency was active: 15.8 µM.
For `O=C(Cn1ncc2c3ccccc3n(Cc3ccccc3F)c2c1=O)N1CCC2(CC1)OCCO2`, the Potency was inconclusive: 31.6 µM [activator, single point].
For `COC(=O)c1cc2occc2n1Cc1nc(-c2cccc(Br)c2)oc1C`, the max response, negative = inhibition was inactive: -0.616%.
In the case of `Cc1ccc(SCc2ccc(C(=O)Nc3cccc([N+](=O)[O-])c3)cc2)cc1`, the Potency is reported as active: 20 µM.
For `CCc1ccc2ncc3c(-c4ccc(C)cc4)nn(CC(=O)Nc4ccc(C)cc4)c3c2c1`, the max response, negative = inhibition was inactive: 15.8%.
In the case of `CCn1c2ccccc2c2cc(NC(=O)COc3ccc(OC)cc3)ccc21`, the Potency is reported as inconclusive: 31.6 µM [inhibitor, single point].
In the case of `Cc1onc(-c2ccccc2Cl)c1C(=O)OCC(=O)Nc1ccc2c(c1)OCO2`, the Potency is reported as inconclusive: 31.6 µM [inhibitor, single point].
In the case of `O=C(N/N=C\C=C\c1ccc2c(c1)OCO2)C1COc2cc3ccccc3cc2O1` (configuration not stated), the Potency is reported as active: 25.1 µM.
For `Cc1cc(C)c2sc(N3CCN(C(=O)C4CC4)CC3)nc2c1`, the Potency was inconclusive: 39.8 µM [activator, single point].
For `COc1cc(C(=O)N2CCCC(c3nc(-c4cccs4)no3)C2)cc(OC)c1OC` (configuration not stated), the Potency was inconclusive: 25.1 µM [activator, single point].
With `COc1cccc(/C=C2/SC(=S)N(CC(=O)Nc3nnc(C)s3)C2=O)c1` the max response, negative = inhibition was inactive: -22.7%.
`Cc1cc(C)n2nc(C(=O)Nc3ccc4c(c3)OCO4)nc2n1` was tested, and the Potency was inconclusive: 39.8 µM [inhibitor, single point].
With `O=C(Nc1cccc(S(=O)(=O)NCc2ccco2)c1)c1cc(-c2ccccc2)nc2ccccc12` the Potency was inconclusive: 25.1 µM [inhibitor, single point].
With `Cc1cc2ccc(OC(=O)c3ccc(N=C(N)N)cc3)cc2oc1=O` the max response, negative = inhibition was inactive: 4.93%.
With `CCN(CC)S(=O)(=O)c1ccc2c(c1)c(=O)c(C(=O)NCc1ccc3c(c1)OCO3)cn2C` the Potency was inconclusive: 20 µM [activator, partial curve].
With `COc1ccc(CNC(=O)CCc2c(C)c3cc4c(C)coc4cc3oc2=O)cc1` the max response, negative = inhibition was inactive: 0.897%.
`CCN(CC)S(=O)(=O)c1cccc(C(=O)NC(Cc2c[nH]c3ccccc23)c2nnc3n2CCC3)c1` (configuration not stated) was tested, and the Potency was inconclusive: 39.8 µM [activator, single point].
With `O=C(CCC1N=C2c3ccccc3N=C(SCc3ccc(F)cc3)N2C1=O)NCc1ccco1` (configuration not stated) the Potency was inconclusive: 31.6 µM [activator, single point].
With `CC[C@H](CN(C)C)C(=O)c1ccco1` the max response, negative = inhibition was inactive: 3.62%.
For `NC(=O)CC[C@@H]1NC(=O)[C@H](Cc2ccc(O)cc2)NC(=O)c2cc([N+](=O)[O-])cc(F)c2OCC[C@@H](C(N)=O)NC1=O`, the Potency was inconclusive: 31.6 µM [activator, single point].
